Laboratory results: the supplement of paper PMC10037445
Over roughly 2,900 compounds, “NF-kB SEAP reporter activity, fold change vs agonist alone” has its median near 0.99; the highest 2% begin near 2.6. This is one part of the list.

Columns and labels:
[1] = system: RAW-Dual; test: NF-kB SEAP reporter activity, fold change vs agonist alone; cytotoxicity flag (confluency mask): not cytotoxic; higher = enhanced NF-kB activity
In short: (§1)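 RAW-Dual macrophages (50,000 cells/well in DMEM, 384-well plates) received 50 nL of library stock by pin tool, then a PRR agonist 1 h later, and were kept at 37 °C, 5% CO2. After 20 hours, supernatant was read for IRF by QuantiLuc luminescence and for NF-κB by QuantiBlue absorbance at 620 nm. Reporter activity is fold change over agonist-alone wells. Cytotoxic wells had IncuCyte confluency below 70% of agonist controls in both mask sets.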

[2] = system: RAW-Dual; test: NF-kB SEAP reporter activity, fold change vs agonist alone; higher = enhanced NF-kB activity
In short: as §1

[3] = system: RAW-Dual; test: NF-kB SEAP reporter activity, fold change vs agonist alone; cytotoxicity flag (confluency mask): cytotoxic (confluency <70% of control); higher = enhanced NF-kB activity
In short: as §1

[4] = agonist: ODN 1826 (TLR9) 0.5 ug/mL
[5] = agonist: Pam2CSK4 (TLR2/6) 0.1 ug/mL
[6] = agonist: Pam3CSK4 (TLR2/1) 0.1 ug/mL
[7] = library stock concentration (final ~1000-fold dilution): 10 mM, cytotoxicity flag (confluency mask): not cytotoxic, agonist: Imiquimod (TLR7) […]
[8] = library stock concentration (final ~1000-fold dilution): 10 mM, cytotoxicity flag (confluency mask): not cytotoxic, agonist: MPLA (TLR4) […]
[9] = library stock concentration (final ~1000-fold dilution): 10 mM, cytotoxicity flag (confluency mask): cytotoxic (confluency <70% of control), agonist: Imiquimod (TLR7) […]
[10] = library stock concentration (final ~1000-fold dilution): 10 mM, cytotoxicity flag (confluency mask): cytotoxic (confluency <70% of control), agonist: MPLA (TLR4) […]

SMILES: Cc1cn(C2C=CC(CO)O2)c(=O)[nH]c1=O (configuration not stated) (library stock concentration (final ~1000-fold dilution): 10 mM)
- NF-kB SEAP reporter activity ([1]; agonist: LPS (TLR4) 0.1 ug/mL): 1.04
- NF-kB SEAP reporter activity [1, 4]: 1.05
- NF-kB SEAP reporter activity [1, 5]: 1
- NF-kB SEAP reporter activity [1, 6]: 1.11

SMILES: Cc1cn(C2C=CC(CO)O2)c(=O)[nH]c1=O (configuration not stated)
- NF-kB SEAP reporter activity [2, 7]: 0.97
- NF-kB SEAP reporter activity [2, 8]: 1.06

SMILES: Br.CCCc1cc(-c2nc(-c3ccc(C)cc3)cs2)ccn1
- NF-kB SEAP reporter activity [2, 9]: 1.1
- NF-kB SEAP reporter activity [2, 10]: 1.37

SMILES: Br.CCCc1cc(-c2nc(-c3ccc(C)cc3)cs2)ccn1 (library stock concentration (final ~1000-fold dilution): 10 mM)
- NF-kB SEAP reporter activity ([3]; agonist: LPS (TLR4) 0.1 ug/mL): 1.54
- NF-kB SEAP reporter activity [3, 4]: 1.04
- NF-kB SEAP reporter activity [3, 5]: 1.07
- NF-kB SEAP reporter activity [3, 6]: 0.895

SMILES: CC1CC(OC(=O)C(O)c2ccccc2)CC(C)(C)C1 (configuration not stated)
- NF-kB SEAP reporter activity [2, 9]: 1.29
- NF-kB SEAP reporter activity [2, 10]: 1.2

SMILES: CC1CC(OC(=O)C(O)c2ccccc2)CC(C)(C)C1 (configuration not stated) (library stock concentration (final ~1000-fold dilution): 10 mM)
- NF-kB SEAP reporter activity ([3]; agonist: LPS (TLR4) 0.1 ug/mL): 0.979
- NF-kB SEAP reporter activity [3, 4]: 1.09
- NF-kB SEAP reporter activity [3, 5]: 1.18
- NF-kB SEAP reporter activity [3, 6]: 1.17

SMILES: COc1ccc(CNc2nc(N3CCCC3CO)ncc2C(=O)NCc2ncccn2)cc1Cl (configuration not stated) (library stock concentration (final ~1000-fold dilution): 10 mM)
- NF-kB SEAP reporter activity ([1]; agonist: LPS (TLR4) 0.1 ug/mL): 1.73
- NF-kB SEAP reporter activity [1, 4]: 1.39
- NF-kB SEAP reporter activity [1, 5]: 1.33
- NF-kB SEAP reporter activity [1, 6]: 1.36

SMILES: COc1ccc(CNc2nc(N3CCCC3CO)ncc2C(=O)NCc2ncccn2)cc1Cl (configuration not stated)
- NF-kB SEAP reporter activity [2, 7]: 1.16
- NF-kB SEAP reporter activity [2, 8]: 1.39

SMILES: O=C(O)c1cccnc1Nc1cccc(C(F)(F)F)c1
- NF-kB SEAP reporter activity [2, 7]: 0.957
- NF-kB SEAP reporter activity [2, 8]: 0.922

SMILES: O=C(O)c1cccnc1Nc1cccc(C(F)(F)F)c1 (library stock concentration (final ~1000-fold dilution): 10 mM)
- NF-kB SEAP reporter activity ([1]; agonist: LPS (TLR4) 0.1 ug/mL): 0.75
- NF-kB SEAP reporter activity [1, 4]: 0.783
- NF-kB SEAP reporter activity [1, 5]: 0.895
- NF-kB SEAP reporter activity [1, 6]: 0.935

SMILES: O=c1ccc2ccc(O)cc2o1
- NF-kB SEAP reporter activity [2, 7]: 1.12
- NF-kB SEAP reporter activity [2, 8]: 1.05

SMILES: O=c1ccc2ccc(O)cc2o1 (library stock concentration (final ~1000-fold dilution): 10 mM)
- NF-kB SEAP reporter activity ([1]; agonist: LPS (TLR4) 0.1 ug/mL): 1.06
- NF-kB SEAP reporter activity [1, 4]: 1.04
- NF-kB SEAP reporter activity [1, 5]: 0.924
- NF-kB SEAP reporter activity [1, 6]: 1.18

SMILES: O=c1ccc2ccc(OCCCCN3CCN(c4cccc5sccc45)CC3)cc2[nH]1
- NF-kB SEAP reporter activity [2, 8]: 1.06

SMILES: O=c1ccc2ccc(OCCCCN3CCN(c4cccc5sccc45)CC3)cc2[nH]1 (library stock concentration (final ~1000-fold dilution): 10 mM)
- NF-kB SEAP reporter activity ([1]; agonist: LPS (TLR4) 0.1 ug/mL): 1.94
- NF-kB SEAP reporter activity [1, 4]: 1.02
- NF-kB SEAP reporter activity [1, 5]: 1.65
- NF-kB SEAP reporter activity [1, 6]: 1.11

SMILES: C[N+](C)(C)CCCCCC[N+](C)(C)C
- NF-kB SEAP reporter activity ([2]; library stock concentration (final ~1000-fold dilution): 10 mM water, cytotoxicity flag (confluency mask): not cytotoxic, agonist: Imiquimod (TLR7) […]): 0.906
- NF-kB SEAP reporter activity ([2]; library stock concentration (final ~1000-fold dilution): 10 mM water, cytotoxicity flag (confluency mask): not cytotoxic, agonist: MPLA (TLR4) […]): 1.02

SMILES: C[N+](C)(C)CCCCCC[N+](C)(C)C (library stock concentration (final ~1000-fold dilution): 10 mM water)
- NF-kB SEAP reporter activity ([1]; agonist: LPS (TLR4) 0.1 ug/mL): 1.08
- NF-kB SEAP reporter activity [1, 4]: 1.14
- NF-kB SEAP reporter activity [1, 5]: 1.24
- NF-kB SEAP reporter activity [1, 6]: 1

SMILES: Cc1ccc(NC(=O)Nc2cc(-c3ccccc3-c3nnn[nH]3)ccc2N(CC(C)C)CC(C)C)cc1
- NF-kB SEAP reporter activity [2, 9]: 0.81
- NF-kB SEAP reporter activity [2, 10]: 1.25

SMILES: Cc1ccc(NC(=O)Nc2cc(-c3ccccc3-c3nnn[nH]3)ccc2N(CC(C)C)CC(C)C)cc1 (library stock concentration (final ~1000-fold dilution): 10 mM)
- NF-kB SEAP reporter activity ([3]; agonist: LPS (TLR4) 0.1 ug/mL): 1.16
- NF-kB SEAP reporter activity [3, 4]: 0.54
- NF-kB SEAP reporter activity [3, 5]: 0.207
- NF-kB SEAP reporter activity [3, 6]: 0.333

SMILES: Cn1cc(-c2ccc3ncc(Cc4ccc5ncccc5c4)n3n2)cn1 (library stock concentration (final ~1000-fold dilution): 10 mM)
- NF-kB SEAP reporter activity ([1]; agonist: LPS (TLR4) 0.1 ug/mL): 1.88
- NF-kB SEAP reporter activity [1, 4]: 1.35
- NF-kB SEAP reporter activity [1, 5]: 1.31
- NF-kB SEAP reporter activity [1, 6]: 1.47

SMILES: Cn1cc(-c2ccc3ncc(Cc4ccc5ncccc5c4)n3n2)cn1
- NF-kB SEAP reporter activity [2, 7]: 1.37
- NF-kB SEAP reporter activity [2, 8]: 1.23

SMILES: Cc1cc(NC(=O)Nc2ccc(N(C)C)cc2)c2cc(F)cc(F)c2n1 (library stock concentration (final ~1000-fold dilution): 10 mM)
- NF-kB SEAP reporter activity ([1]; agonist: LPS (TLR4) 0.1 ug/mL): 1.6
- NF-kB SEAP reporter activity [1, 4]: 1.17
- NF-kB SEAP reporter activity [1, 5]: 0.859
- NF-kB SEAP reporter activity [1, 6]: 1.05

SMILES: Cc1cc(NC(=O)Nc2ccc(N(C)C)cc2)c2cc(F)cc(F)c2n1
- NF-kB SEAP reporter activity [2, 7]: 0.989
- NF-kB SEAP reporter activity [2, 8]: 1.04

SMILES: CC(C)NCC(O)COc1ccc(CCOCC2CC2)cc1.Cl (configuration not stated)
- NF-kB SEAP reporter activity [2, 7]: 0.875
- NF-kB SEAP reporter activity [2, 8]: 0.894

SMILES: CC(C)NCC(O)COc1ccc(CCOCC2CC2)cc1.Cl (configuration not stated) (library stock concentration (final ~1000-fold dilution): 10 mM)
- NF-kB SEAP reporter activity ([1]; agonist: LPS (TLR4) 0.1 ug/mL): 1.18
- NF-kB SEAP reporter activity [1, 4]: 0.83
- NF-kB SEAP reporter activity [1, 5]: 1.02
- NF-kB SEAP reporter activity [1, 6]: 1.24

SMILES: Cc1[nH]c2ccccc2c1CCNC(=O)c1cccs1 (library stock concentration (final ~1000-fold dilution): 10 mM)
- NF-kB SEAP reporter activity ([1]; agonist: LPS (TLR4) 0.1 ug/mL): 1
- NF-kB SEAP reporter activity [1, 4]: 1.06
- NF-kB SEAP reporter activity [1, 5]: 1.12
- NF-kB SEAP reporter activity [1, 6]: 0.991

SMILES: Cc1[nH]c2ccccc2c1CCNC(=O)c1cccs1
- NF-kB SEAP reporter activity [2, 7]: 1.06
- NF-kB SEAP reporter activity [2, 8]: 1.11

SMILES: CC(C)N(CCC(c1ccccc1)c1cc(CO)ccc1O)C(C)C (configuration not stated)
- NF-kB SEAP reporter activity [2, 7]: 0.971
- NF-kB SEAP reporter activity [2, 8]: 0.976

SMILES: CC(C)N(CCC(c1ccccc1)c1cc(CO)ccc1O)C(C)C (configuration not stated) (library stock concentration (final ~1000-fold dilution): 10 mM)
- NF-kB SEAP reporter activity ([1]; agonist: LPS (TLR4) 0.1 ug/mL): 1.39
- NF-kB SEAP reporter activity [1, 4]: 0.944
- NF-kB SEAP reporter activity [1, 5]: 0.978
- NF-kB SEAP reporter activity [1, 6]: 1.07

SMILES: COc1ccc(/C=C/C(=O)O)cc1OC (library stock concentration (final ~1000-fold dilution): 10 mM)
- NF-kB SEAP reporter activity ([1]; agonist: LPS (TLR4) 0.1 ug/mL): 1.43
- NF-kB SEAP reporter activity [1, 4]: 1.15
- NF-kB SEAP reporter activity [1, 5]: 1.15
- NF-kB SEAP reporter activity [1, 6]: 1.14
